Here are results for 62 compounds from the supplement of paper PMC9446081.

The structures appear in SMILES notation. Hit rate of the full screen: of about 39,000 compounds, about 220 (0.56%) showed activity. Some of the results follow.
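Note: static incubation at 37 °C against the wild-type strain, values averaged over two biological replicates.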

The assay concerns Escherichia coli K-12 BW25113. Nature of the assay: relative growth (OD600 normalised to plate interquartile mean) (fraction); higher = less growth inhibition, active = 0.2 or less. The note with it: 50 µM; LB; incubation time: overnight (16-24 h).
`Cc1ccc(S(=O)(=O)N(C)C[C@@H]2Oc3ccc(NS(C)(=O)=O)cc3CC(=O)N([C@H](C)CO)C[C@H]2C)cc1`: the relative growth is inactive: 1.01.

In the case of `Cc1ccc(-c2ccc3c(c2)O[C@H](CN(C)C(=O)Nc2ccc(C(F)(F)F)cc2)[C@@H](C)CN([C@H](C)CO)S3(=O)=O)cc1`, the relative growth was inactive: 0.763.

As for `C[C@@H]1CN([C@H](C)CO)C(=O)c2cc(NS(C)(=O)=O)ccc2O[C@@H]1CN(C)C(=O)NC1CCCCC1`, the relative growth is inactive: 0.938.

Regarding `OCc1cc(O)c2c(O)c3c(O)cccc3c(O[C@@H]3O[C@H](CO)[C@@H](O)[C@H](O)[C@H]3O)c2c1`, the relative growth is inactive: 1.

Turning to `C[C@@H]1CCCCO[C@@H](CN(C)C(=O)Nc2cccc3ccccc23)[C@H](C)CN([C@H](C)CO)C(=O)c2cc(NC(=O)Cc3ccccc3)ccc2O1`, the relative growth is inactive: 1.04.

`CC(=O)N(C)[C@H]1C(=O)C(=O)c2ccccc2C1=O`: the relative growth was inactive: 0.914.

For the compound `C[C@@H]1CN([C@@H](C)CO)C(=O)c2cc(NC(=O)CCCN(C)C)ccc2O[C@@H](C)CCCCO[C@H]1CN(C)C(=O)Nc1cccc2ccccc12`, the relative growth is inactive: 1.01.

Turning to `C[C@@H]1CCCCO[C@@H](CN(C)C(=O)Nc2cccc3ccccc23)[C@@H](C)CN([C@H](C)CO)C(=O)c2cc(NC(=O)CCCCCC(=O)Nc3ccccc3N)ccc2O1`, the relative growth is inactive: 0.999.

Turning to `OC[C@@H]1COCCN1Cc1ccccc1`, the relative growth was inactive: 1.01.

As to `COc1ccc(S(=O)(=O)N(C)C[C@H]2OCCCC[C@@H](C)Oc3ccc(NC(=O)Nc4cccc5ccccc45)cc3C(=O)N([C@@H](C)CO)C[C@@H]2C)cc1`, the relative growth is inactive: 1.06.

As to `COc1ccccc1C#Cc1ccc2c(c1)O[C@@H](CN(C)Cc1cncnc1)[C@@H](C)CN([C@H](C)CO)S2(=O)=O`, the relative growth is inactive: 1.04.

Take `COCC(=O)N(C)C[C@H]1Oc2cc(C#C[C@H](C)O)ccc2S(=O)(=O)N([C@@H](C)CO)C[C@H]1C`: the relative growth was inactive: 1.01.

Take `O=C(O)c1ccc(O)cn1`: the relative growth is inactive: 1.01.

Regarding `CCCCCCCCNC(C)C(O)c1ccc(SC(C)C)cc1` (configuration not stated), the relative growth is inactive: 0.434.

On to `C[C@@H]1CN([C@@H](C)CO)C(=O)c2cc(NC(=O)Nc3ccc(C(F)(F)F)cc3)ccc2O[C@@H](C)CCCCO[C@H]1CN(C)Cc1ccncc1`, for which the relative growth was inactive: 0.956.

With `C[C@@H]1CCCCO[C@@H](CN(C)S(=O)(=O)c2cccs2)[C@@H](C)CN([C@@H](C)CO)C(=O)c2cc(NC(=O)Nc3ccc4c(c3)OCO4)ccc2O1`, the relative growth is inactive: 1.01.

As to `O=C(Nc1nccs1)[C@@H]1[C@@H](CO)[C@@H]2Cn3c(cccc3=O)[C@@H]2N1C(=O)C1CC1`, the relative growth is inactive: 0.999.

Consider `CN(C)C(=O)C[C@H]1CC[C@H]2[C@@H](COc3ccc(NS(=O)(=O)c4cccc(F)c4)cc3C(=O)N2C)O1`, for which the relative growth is inactive: 1.02.

In the case of `C[C@@H](N)C(=O)OC(C)(C)Cc1ccc(Cl)cc1`, the relative growth was inactive: 0.985.

For the compound `CC(C)NC(=O)Nc1ccc2c(c1)CC(=O)N([C@H](C)CO)C[C@@H](C)[C@@H](CN(C)S(=O)(=O)c1ccccc1)O2`, the relative growth was inactive: 1.01.

On to `COc1cccc(NC(=O)N[C@H]2C=C[C@@H](CC(=O)N3CCOCC3)O[C@@H]2CO)c1`, for which the relative growth is inactive: 0.898.

Take `COc1cccc(S(=O)(=O)N[C@H]2CC[C@@H](CC(=O)NC3CCC3)O[C@@H]2CO)c1`: the relative growth was inactive: 0.989.

For the compound `CC[C@@](C)(Nc1n[nH]c(=O)[nH]c1=O)C(=O)O`, the relative growth was inactive: 1.03.

Consider `C=CCCC(=O)O[C@@H](c1ccccc1)[C@@H](C)N(C)C(=O)[C@H](CC=C)NC(=O)OCC1c2ccccc2-c2ccccc21`, for which the relative growth was inactive: 1.02.

As to `CCOn1ccnc1`, the relative growth is inactive: 0.993.

As to `C[C@H]1CN([C@@H](C)CO)C(=O)c2cc(NS(C)(=O)=O)ccc2O[C@H]1CN(C)S(=O)(=O)c1ccc(Cl)cc1`, the relative growth was inactive: 0.974.

`O=C(O)c1cc2ccc(O)c(=O)c-2c(O)c(O)c1`: the relative growth was inactive: 0.987.

For `C[C@@H]1CCCCO[C@@H](CN(C)C(=O)Nc2cccc3ccccc23)[C@H](C)CN([C@@H](C)CO)C(=O)c2cc(NC(=O)NC3CCCCC3)ccc2O1`, the relative growth was inactive: 1.03.

In the case of `C=CCOC(=O)[C@H]1[C@@H]2C(=O)O[C@@H](c3ccccc3)[C@@H](c3ccccc3)N2[C@@H](c2ccc(OCCOC(=O)[C@H]3C[C@H]4C(=O)NCC(=O)N4[C@H]3c3ccc(O)cc3)cc2)[C@]12C(=O)Nc1ccc(I)cc12`, the relative growth is inactive: 1.06.

Regarding `C[C@@H]1CN([C@H](C)CO)C(=O)c2cc(NC(=O)CCN3CCOCC3)ccc2O[C@@H]1CN(C)C(=O)NC1CCCCC1`, the relative growth is inactive: 1.03.

As to `C[C@H]1CCCCO[C@@H](CN(C)S(=O)(=O)c2ccccc2)[C@@H](C)CN([C@@H](C)CO)C(=O)c2cc(NC(=O)Nc3ccc(C(F)(F)F)cc3)ccc2O1`, the relative growth was inactive: 0.983.

Consider `C[C@H]1CN([C@@H](C)CO)C(=O)c2cc(C#Cc3cccc(F)c3)cnc2O[C@H]1CN(C)CC1CCOCC1`, for which the relative growth is inactive: 1.02.

`C[C@@H]1CN([C@H](C)CO)C(=O)c2cc(NC(=O)C3CCCCC3)ccc2O[C@@H](C)CCCCO[C@H]1CN(C)Cc1ccc(C(=O)O)cc1`: the relative growth was inactive: 0.997.

Consider `O=C(C[C@@H]1C[C@H]2c3cc(NS(=O)(=O)c4ccc(F)cc4)ccc3O[C@H]2[C@H](CO)O1)NCCN1CCCCC1`, for which the relative growth is inactive: 1.01.

In the case of `C[C@H]1CN([C@@H](C)CO)C(=O)c2cccc(NS(=O)(=O)c3cn(C)cn3)c2O[C@H]1CN(C)C(=O)Nc1ccc(F)cc1`, the relative growth was inactive: 0.979.

On to `CC(C)NC(=O)Nc1cccc2c1O[C@@H](CN(C)S(=O)(=O)c1ccc(Cl)cc1)[C@@H](C)CN([C@@H](C)CO)C2=O`, for which the relative growth was inactive: 1.01.

`C[C@@H]1CN([C@@H](C)CO)C(=O)c2cc(NC(=O)NC3CCCCC3)ccc2O[C@@H](C)CCCCO[C@@H]1CN(C)CC1CCCCC1`: the relative growth was inactive: 1.01.

Take `Nc1ncnc2c1ncn2[C@@H]1O[C@H](CSCC[C@H](N)C(=O)O)[C@@H](O)[C@H]1O`: the relative growth was inactive: 0.995.

As to `CCS(=O)(=O)N1C[C@]2(CCN(CC2)C(=O)Cc2ccccc2)c2c(n(c3cc(ccc23)OC)C)[C@@H]1CO`, the relative growth is inactive: 0.978.

Consider `COc1cc(C=CC(=O)O)ccc1O`, for which the relative growth was inactive: 0.846.

Consider `COc1c2ccoc2cc2oc(C)cc(=O)c12`, for which the relative growth was inactive: 1.02.

As to `C[C@@H]1CN([C@@H](C)CO)C(=O)Cc2cc(NS(=O)(=O)c3cn(C)cn3)ccc2O[C@@H]1CN(C)CC1CCCCC1`, the relative growth was inactive: 0.997.

As for `O=C(C[C@@H]1C[C@H]2c3cc(NC(=O)C4CCOCC4)ccc3O[C@H]2[C@H](CO)O1)NCc1ccc(Cl)cc1`, the relative growth was inactive: 0.997.

As to `COc1ccc(S(=O)(=O)N2C[C@H](O)COC[C@@H]3O[C@@H](CC(=O)N[C@H]4CCN(Cc5ccccc5)C4)CC[C@H]32)cc1`, the relative growth was inactive: 0.993.

On to `CO[C@@H]1CN(C)C(=O)c2cc(NC(=O)Nc3ccccc3)ccc2OC[C@H](C)N(C(=O)CN(C)C)C[C@@H]1C`, for which the relative growth is inactive: 1.01.

On to `O=c1cccn[nH]1`, for which the relative growth is inactive: 1.01.

Consider `C[C@H](CO)N1C[C@H](C)[C@H](CN(C)C(=O)Nc2ccc(C(F)(F)F)cc2)OCc2cnnn2CCCC1=O`, for which the relative growth is inactive: 1.

`C[C@@H]1CN(C(=N)N)C[C@H](C)O1`: the relative growth is inactive: 1.01.

In the case of `O=C(C[C@H]1CC[C@@H]2[C@H](COC[C@H](O)CN2S(=O)(=O)c2ccc(Cl)cc2)O1)N[C@@H]1CCN(Cc2ccccc2)C1`, the relative growth was inactive: 0.998.

Regarding `COc1ccc(C2=N[C@H](c3ccc(Cl)cc3)[C@H](c3ccc(Cl)cc3)N2C(=O)N2CCNC(=O)C2)c(OC(C)C)c1`, the relative growth is inactive: 0.989.

For `Cc1noc(C)c1S(=O)(=O)Nc1ccc2c(c1)C(=O)N([C@@H](C)CO)C[C@H](C)[C@@H](CN(C)CC1CC1)O2`, the relative growth is inactive: 1.01.

For `Cc1noc(C)c1S(=O)(=O)Nc1ccc2c(c1)C(=O)N([C@H](C)CO)C[C@H](C)[C@H](CN(C)C(=O)Nc1ccccc1)OCCCC[C@H](C)O2`, the relative growth was inactive: 0.989.

`Cn1c(=O)c2c(ncn2CC(=O)NS(=O)(=O)c2ccccc2)n(C)c1=O`: the relative growth is inactive: 1.

In the case of `CN(C)C(=O)CN1CCC2(CC1)O[C@H](C(=O)NCc1ccccn1)Cn1ccnc12`, the relative growth is inactive: 0.994.

Take `C[C@@H]1CCCCO[C@H](CN(C)C(=O)NC2CCCCC2)[C@@H](C)CN([C@@H](C)CO)C(=O)c2cc(NS(=O)(=O)c3ccccc3)ccc2O1`: the relative growth was inactive: 1.01.

Turning to `C[C@H](CO)N1C[C@H](C)[C@@H](CN(C)S(=O)(=O)c2cn(C)cn2)Oc2c(NC(=O)c3ccc(-c4nccs4)cc3)cccc2C1=O`, the relative growth is inactive: 0.98.

Regarding `COc1ccc(NC(=O)Nc2ccc3c(c2)CC(=O)N([C@@H](C)CO)C[C@H](C)[C@H](CN(C)S(=O)(=O)c2c(C)noc2C)O3)cc1`, the relative growth is inactive: 1.01.

For `Cc1ccc(S(=O)(=O)Nc2ccc3c(c2)CC(=O)N([C@H](C)CO)C[C@@H](C)[C@@H](CN(C)Cc2ccc(Cl)c(Cl)c2)O3)cc1`, the relative growth is inactive: 1.01.

On to `Cc1ccc(S(=O)(=O)N(C)C[C@@H]2OCCCC[C@H](C)Oc3ccc(NS(C)(=O)=O)cc3C(=O)N([C@@H](C)CO)C[C@@H]2C)cc1`, for which the relative growth was inactive: 0.996.

In the case of `Cc1noc(C)c1NC(=O)N(C)C[C@@H]1OCCCC[C@@H](C)Oc2ccc(NC(=O)C3CCCCC3)cc2C(=O)N([C@H](C)CO)C[C@@H]1C`, the relative growth is inactive: 0.994.

As for `C[C@@H]1CN([C@H](C)CO)S(=O)(=O)c2ccc(-c3cccnc3)cc2O[C@@H]1CN(C)C(=O)c1cccc(F)c1`, the relative growth was inactive: 1.05.

With `C[C@H]1CN([C@@H](C)CO)C(=O)c2cccc(NS(=O)(=O)c3cccs3)c2O[C@H]1CN(C)S(=O)(=O)c1ccc(F)cc1`, the relative growth was inactive: 0.993.
